# Experimental data as given in PubChem BioAssay AID485344 (National Center for Advancing Translational Sciences (NCATS), 2010).
# Among all 340,000 compounds or so, about 6,900 (2%) were called active. No stated cut-off is given here; in the data, active means inhibition above about 30%; inactive means below that, where a call was filed. The list shows a part of the results, in another mix than the full data. Where no call is shown, the source filed none.
# Molecular target: D(2) dopamine receptor (Homo sapiens) (UniProt P14416)
# UniProt P14416, sequence (P14416 whole entry, looked up): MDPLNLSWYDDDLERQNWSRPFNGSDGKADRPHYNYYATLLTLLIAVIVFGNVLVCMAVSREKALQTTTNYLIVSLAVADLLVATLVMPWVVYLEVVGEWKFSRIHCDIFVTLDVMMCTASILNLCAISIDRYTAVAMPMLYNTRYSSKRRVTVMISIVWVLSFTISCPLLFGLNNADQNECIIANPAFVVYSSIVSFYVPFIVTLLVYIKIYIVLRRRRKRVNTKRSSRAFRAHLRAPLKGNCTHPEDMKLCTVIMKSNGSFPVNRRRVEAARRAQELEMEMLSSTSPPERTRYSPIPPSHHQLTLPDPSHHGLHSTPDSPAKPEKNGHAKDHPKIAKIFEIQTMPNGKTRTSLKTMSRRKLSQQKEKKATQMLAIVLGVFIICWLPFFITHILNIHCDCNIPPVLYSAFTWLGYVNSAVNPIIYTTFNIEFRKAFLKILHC
# Experiment: HTS Assay for Allosteric Antagonists of the Human D2 Dopamine Receptor: Primary Screen for Antagonists; further: 0% is about no effect
# Conditions: HEK293 TREx D2 cells, calcium flux, dopamine EC80; at 10 µM; stronger effect = higher value
# Outline: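 HEK293 T-REx D2 cells, tet-induced, calcium dye no-wash. Cpd pintool add, 180 s kinetic, then EC80 DA, 180 s kinetic. Ca flux read.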
row,SMILES,inhibition
1,Cc1ccccc1OCc1nc2c3cnn(-c4ccccc4F)c3ncn2n1,7.95%
2,Cc1cc(C)c2nc(-c3ccccn3)cc(C(=O)NCc3cc(C)n(C)n3)c2c1,active: 35.4%
3,COc1ccc(C)cc1NS(=O)(=O)c1ccc2c3c(cccc13)C(=O)N2,2.33%
4,COc1ccccc1Cn1ccn(Cc2ccc(C)cc2)c(=O)c1=O,-0.693%
5,CCCc1cc(N2CCN(c3cccc(C)c3C)CC2)n2cnnc2n1,-7.08%
6,Cc1cc(C)c(NC(=O)CSc2nccn2-c2cccc(Cl)c2)c(C)c1,-2.05%
7,COc1ccc(CNC(=O)CCC2N=C3c4ccccc4N=C(SCc4ccccc4F)N3C2=O)cc1 (configuration not stated),-12.9%
8,Cc1cc(OCCn2c(CCNC(=O)C3CCCCC3)nc3ccccc32)ccc1Cl,8.16%
9,Cc1ccc(-c2nc(SCC(=O)NCC3CCCO3)c3c(=O)n(C)c(=O)n(C)c3n2)cc1 (configuration not stated),2.36%
10,Oc1c(C(c2ccccc2F)N2CCN(c3ccccc3F)CC2)sc2nc(-c3ccco3)nn12 (configuration not stated),-13.2%
11,Cc1ccccc1N1CCN(S(=O)(=O)c2ccccc2)CC1,7.5%
12,COc1cc2nc(Nc3cccc(C)c3)nc(N)c2cc1OC,0.434%
13,CCC(C)Sc1nc2c(c(=O)[nH]c(=O)n2C)n1CC(O)COc1ccccc1C (configuration not stated),active: 30.1%
14,Cc1ccc(C(=O)NCC(c2ccco2)S(=O)(=O)c2cccs2)cc1C (configuration not stated),19.2%
15,CCCCN(Cc1cc2ccccc2[nH]c1=O)C(=O)c1cccc(Cl)c1,-7.09%
16,COC(=O)c1sc(-c2ccccc2)cc1NC(=O)Nc1ccc(Cl)cc1,20.4%
17,CC1=C(C(=O)NCc2ccccc2C)C2(CCCCCC2)OC1=O,-25.5%
18,O=C(Oc1ccc(F)cc1)c1nc(SCc2ccc(F)cc2)ncc1Cl,-8.72%
19,COc1ccc(NC(=O)CCS(=O)(=O)c2ccc3c(c2)oc(=O)n3C)cc1OC,-1.34%
20,COc1ccc(-c2cc3c(=O)n(CC(=O)Nc4cc(F)ccc4F)ccn3n2)cc1OC,13.3%
21,CCc1ccc(NC(=O)[C@H](CSCc2ccccc2)N2Cc3ccccc3C2=O)cc1,1.43%

row,SMILES,inhibition
1,Cc1nn(-c2ccccc2)c2sc(C(=O)Nc3ccc(Br)cc3)cc12,13.7%
2,O=C1COc2ccc(-c3cc(-c4ccccc4)c4c(n3)-c3ccccc3OC4)cc2N1,0.38%
3,O=S(=O)(c1ccc(Cl)cc1)N(CCCN1CCOCC1)Cc1cccs1,active: 42.8%
4,CN(C)c1ccc(-c2nc(-c3cccs3)c(-c3cccs3)[nH]2)cc1,18.9%
5,CN1CCN(CCCN2c3ccccc3Sc3ccc(S(=O)(=O)N(C)C)cc32)CC1,active: 81.6%
6,CCCn1c(SCC(O)c2ccccc2)nc2ccccc21 (configuration not stated),3.27%
7,COc1cccc(CNC(=O)CCCn2ncn3c(cc4occc43)c2=O)c1,7.37%
8,Cc1cccc(C(c2sc3nc(-c4ccco4)nn3c2O)N2CCN(c3ccccc3F)CC2)c1 (configuration not stated),-5.35%
9,CCOC(=O)C1CCCN(S(=O)(=O)c2cc(Br)cc3c2N(C(C)=O)CC3)C1 (configuration not stated),-21%
10,CCOc1ccc(NC(=O)CCN2CCN(c3ccccc3F)CC2)cc1,active: 76.9%
11,CC1CN(CCCCN2C(=O)c3ccccc3C2=O)CC(C)O1 (configuration not stated),active: 39.9%
12,COC(=O)c1ccc(NS(=O)(=O)c2ccc3[nH]c4c(c3c2)CCCC4)cc1,-20.3%
13,CCC(=O)N1CCc2cc(S(=O)(=O)NCCC(=O)NCc3ccc(C)cc3)ccc21,-7.14%
14,COc1ccccc1C(=O)OCc1cc(=O)n2nc(-c3cccs3)sc2n1,-0.748%
15,CCOc1ccc(-c2cc(NC(=O)Nc3ccc(Cl)cc3)c(C(=O)OC)s2)cc1,-1.81%
16,CCCSc1ncc(Cl)c(C(=O)N(Cc2cccc(Cl)c2)C2CCS(=O)(=O)C2)n1 (configuration not stated),-11.7%
17,CCOC(=O)c1c(NC(=O)CCCOc2ccc(C(C)(C)C)cc2)sc2c1CCCC2,8.78%
18,COc1ccc(OC)c(NC(=O)c2cnc(N3CCCCC3)c3ccccc23)c1,-7.23%
19,O=C(CN1CCCN(Cc2ccc(F)cc2)S1(=O)=O)Nc1ccc2c(c1)OCCO2,9.43%
20,CCCN(CCC)CCCNC(=O)Cn1ncc2c3ccccc3n(Cc3ccccc3F)c2c1=O,1.9%
21,CCc1nn(CCCC(=O)NCc2ccc(C)cc2)c(=O)c2cc3occc3n12,17.2%

row,SMILES,inhibition
1,CC(=O)c1nn(-c2ccc(OC(F)(F)F)cc2)nc1Nc1ccccc1,17.1%
2,CCNC(=S)N1CCN(CCN2C(=O)c3cccc4cccc(c34)C2=O)CC1,active: 43.5%
3,CCOC(=O)N1CCC(NC(=O)c2cnn(-c3ccc(C)cc3C)c2C2CCN(C(=O)OC(C)(C)C)CC2)CC1,7.11%
4,CC(=O)Nc1cccc(Nc2nc3ccccc3n3c(C)nnc23)c1,-15.2%
5,Cc1ccc(NC(=O)C(Cc2ccccc2)NS(=O)(=O)c2ccc3c(c2)CCC(=O)N3)cc1 (configuration not stated),20.6%
6,Cc1cc(C)cc(NC(=O)CSc2nc3ncccc3[nH]2)c1,8%
7,Cc1ccc(NC(=O)C(=O)NCC(c2ccc3c(c2)OCO3)N2CCN(C)CC2)c(C)c1 (configuration not stated),12.2%
8,COc1ccc(OC)c2sc(NC(=O)C3CC3)nc12,active: 64.9%
9,CC(=O)c1cccc(NC(=O)N[C@@H](CC(C)C)C(=O)O)c1,active: 33.4%
10,CN(C)S(=O)(=O)c1cccc(CNCC2COc3ccccc3O2)c1 (configuration not stated),active: 106%
11,CS(=O)(=O)c1cccc(-c2nnc(NC(=O)c3ccc4c(c3)OCCO4)o2)c1,-2.35%
12,CCc1ccc(NC(=O)CC2C(=O)N(c3ccc(C)cc3)C(=O)N2C2CCCC2)cc1 (configuration not stated),7.58%
13,CC(C)(C)c1ccc(Oc2nc3ccccn3c(=O)c2/C=C(\C#N)c2nc3ccccc3s2)cc1,-3.54%
14,COc1ccc2c(c1)CCc1sc(NC(=O)c3ccc(Br)cc3)nc1-2,-6.96%
15,COc1ccc(N2CCN(S(=O)(=O)CCNC(=O)c3cc(=O)c4ccccc4o3)CC2)cc1,-19.7%
16,CN(C)c1oc(-c2ccc(COc3ccccc3)o2)nc1C#N,-11.4%
17,CC(C)CN(CCNC(=O)c1cn(C)c2ccc(S(=O)(=O)N3CCCCCC3)cc2c1=O)CC(C)C,-3.75%
18,COc1cc(NC(=O)Cn2ccn(-c3cc(C)cc(C)c3)c(=O)c2=O)cc(OC)c1,14.8%
19,Cc1cc(C)cc(NC(=O)CSc2nc(=O)[nH]c3c2CCC3)c1,-12.1%
20,O=S(=O)(c1cccc(Cl)c1)c1nnn2c1nc(NC1CCCC1)c1sccc12,-4.53%
